Experimental data: PubChem BioAssay AID1159614 (National Center for Advancing Translational Sciences (NCATS), 2016)
The whole screen tested about 45,000 compounds, of which about 65 (0.1%) were called active. Calls come from the whole dose curve; as a rule, active = well fitted activation curve with a large enough effect; inconclusive = small, poorly fitted or top-dose-only effect; inactive = no such curve, though single readings can be large or run the other way. Some of the results follow.

The compounds below were run against Galactocerebrosidase (Homo sapiens) (UniProt P54803) (assay: A Novel Cell-Based Assay to Identify Small Molecules for B -Galactocerebrosidase). Details: 145M-Twi-hGALC-G270D cells (Twitcher mouse brain line with human GALC G270D), HMU-beta-Gal fluorescence, 48 h; series mostly up to 57.5 µM; activation: at the top concentration.
Chain of UniProt P54803 (P54803 whole entry, looked up): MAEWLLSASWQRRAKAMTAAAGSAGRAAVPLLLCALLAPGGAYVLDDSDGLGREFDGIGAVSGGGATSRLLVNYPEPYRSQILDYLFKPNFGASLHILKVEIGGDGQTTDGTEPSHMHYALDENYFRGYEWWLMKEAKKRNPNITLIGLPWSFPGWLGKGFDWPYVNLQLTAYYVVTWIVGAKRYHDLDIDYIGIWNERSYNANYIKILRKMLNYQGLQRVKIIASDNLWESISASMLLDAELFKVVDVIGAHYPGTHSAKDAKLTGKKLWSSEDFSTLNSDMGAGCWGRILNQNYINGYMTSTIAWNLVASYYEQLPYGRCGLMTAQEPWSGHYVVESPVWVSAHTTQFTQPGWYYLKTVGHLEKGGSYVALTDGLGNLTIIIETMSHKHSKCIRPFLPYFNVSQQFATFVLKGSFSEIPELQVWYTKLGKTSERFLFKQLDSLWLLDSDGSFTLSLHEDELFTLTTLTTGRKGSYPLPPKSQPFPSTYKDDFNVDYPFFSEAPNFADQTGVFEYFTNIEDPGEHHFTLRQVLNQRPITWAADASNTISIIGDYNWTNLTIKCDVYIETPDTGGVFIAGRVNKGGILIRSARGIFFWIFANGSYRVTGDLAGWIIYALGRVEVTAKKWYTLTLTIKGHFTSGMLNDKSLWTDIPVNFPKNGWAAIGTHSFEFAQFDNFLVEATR
Summary of the method: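 Brain-derived Twitcher mouse 145M-Twi cells stably expressing human GALC-G270D or wild-type GALC, treated live, then residual GALC activity read by fluorescence of HMU-b-Gal substrate (0.1 mM final) in citrate-phosphate buffer pH 5.2 with sodium taurocholate. Signal increase indicates enhancement.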
Note: 0% is about no effect; nearly all actives have a fitted effect of over 65% in size.

activation, inactive:
CCOC(=O)C1=C(CN(C)Cc2ccccc2)NC(=O)NC1c1ccc(OC)cc1 (centres undefined) -6.27%
CCCCOc1ccccc1C(=O)N(Cc1cccc(F)c1)C1CCS(=O)(=O)C1 (centres undefined) -14.8%
Cc1ccc(NC(=O)c2ccc(CNS(=O)(=O)c3ccc4c(c3)C(C)(C)C(=O)N4C)cc2)cc1F -9.17%
CCS(=O)(=O)c1ccccc1C(=O)Nc1ccc(-c2nc3ccccc3s2)cc1 -6.77%
CC(C)CCNC(=O)CN1C(=O)c2cccnc2Sc2ccccc21 -4.54%
CC(=O)c1cccc(NC(=O)Cc2noc3ccccc23)c1 4.74%
CCCCC(=O)NC1(C(F)(F)F)C(=O)Nc2c1c(=O)[nH]c(=O)n2-c1ccc(C)c(C)c1 (centres undefined) -11.2%
O=C(Nc1ccc2nc(SCCOc3ccccc3Cl)sc2c1)c1ccc2c(c1)OCO2 -2.58%
COc1ccc(CC(=O)Nc2cc(-c3cn4cccnc4n3)ccc2OC)cc1 6.34%
Cc1c(C(=O)N(Cc2ccco2)Cc2ccccc2Cl)oc2ccc(F)cc12 -8.45%
COc1cc(OC)c(NC(=O)C(Cc2ccccc2)NS(=O)(=O)c2cccc3nsnc23)cc1Cl (centres undefined) -24.9%
CN(C)c1ccc(NC(=O)CSc2nc3ccsc3c(=O)n2CCCCCC(=O)O)cc1 -9.14%
COc1ccc(OC(C)C(=O)NCc2nc(-c3cccc(C)c3)no2)cc1 (centres undefined) -19.3%
CCCCNC(=O)c1cnc2sc(N3CCCCCC3)nn2c1=O -12.6%
COc1ccc(C)cc1NC(=O)Nc1ccccc1OCc1cc(=O)n2ccccc2n1 -1.31%
Cc1ccccc1-c1noc(-c2ccc(N3CCN(C)CC3)c([N+](=O)[O-])c2)n1 -21.3%
Cc1cc(C)c(NC(=O)C(=O)NCC(c2cccnc2)N2CCN(Cc3ccccc3)CC2)c(C)c1 (centres undefined) -10.4%
COc1cccc(NC(=O)CSC2=Nc3ccccc3C3=NC(CC(=O)NCc4ccc5c(c4)OCO5)C(=O)N23)c1 (centres undefined) -7.67%
O=C(CSc1nc2nccnc2c(=O)n1CCc1c[nH]c2ccccc12)Nc1ccc(F)cc1 2.17%
COc1ccc(CC(=O)N(Cc2nc(-c3ccc(C)cc3)no2)C(C)C)cc1 -22.7%
COc1ccc2c(c1)c1c(c(=O)n(-c3ccccc3)c(=O)n1CC(=O)NCc1ccc(C)cc1)n2C -10.5%
CSc1nn(Cc2cccc(Cl)c2)c(N(C(C)=O)C(C)=O)c1S(=O)(=O)c1ccccc1 1.74%
COc1ccc(-n2cc(C(=O)OCc3ccc(Cl)cc3)c3ccccc3c2=O)cc1 -3.01%
CN(C)c1ccc(C(CNS(=O)(=O)c2ccc(F)cc2)N2CCOCC2)cc1 (centres undefined) -14.7%
Cn1c(=O)c(=O)n(C)c2cc(S(=O)(=O)N3CCCC3C(=O)Nc3ccc(F)cc3)ccc21 (centres undefined) 11.6%
COc1ccc(S(=O)(=O)N(CC(=O)NCCSCc2ccccc2)c2ccc(C)cc2)cc1 -7.74%
Cc1ccc(NC(=O)CSc2ccc(-c3ccccn3)nn2)cc1F 2.76%
CCOc1ccc(CNC(=O)Cn2ccc3cc(S(=O)(=O)N4CCCCC4)ccc32)cc1 -11%
Cc1c(C(=O)OC2CCCCCC2)[nH]c2c1C(=O)CC(c1ccc(N(C)C)cc1)C2 (centres undefined) -15.8%
COc1cc(OC)cc(C(=O)Nc2cc(-c3nc4cccnc4s3)ccc2C)c1 -6.69%
CCC(C(=O)Nc1ccc(C(=O)OC)cc1)n1nc(-c2ccc(C)c(C)c2)ccc1=O (centres undefined) -8.65%
COc1ccc(NC(=O)C2CCN(S(=O)(=O)c3ccc4c(c3)CCCC(=O)N4)CC2)c(OC)c1 -12.8%
CCOc1ccc(Nc2sc(C(=O)c3cccc(OC)c3)c(N)c2S(=O)(=O)c2ccccc2)cc1 -18.8%
O=S(=O)(c1ccc(-n2cnnn2)cc1)N1CCN(c2cccc(C(F)(F)F)c2)CC1 -16.5%
Cc1oc(C)c2c(=O)cc(-c3ccc4c(c3)OCO4)cc(OC(=O)c3cccc(Cl)c3)c12 -26.6%
N#Cc1c(C(F)(F)F)cc(-c2cccs2)nc1SCC(=O)Nc1cccc(C(F)(F)F)c1 -17%
COc1ccc(S(=O)(=O)N(Cc2nc(-c3ccc(Cl)cc3)no2)C2CCCCC2)cc1 3.3%
Cc1ccc(S(=O)(=O)NCc2ccc(C(=O)NCCc3cccc(C)c3)cc2)cc1 -17.2%
Cc1ccc(Cn2c(=O)n(-c3cc(C)cc(C)c3)c(=O)c3oc4ccccc4c32)cc1 -12.1%
O=C(c1ccccc1Br)N1CCC(c2nc3ccccc3o2)CC1 -6.64%
COC(=O)c1ccc(Cl)cc1NC(=O)N(Cc1ccc(OC)cc1)C1CCN(C(C)=O)CC1 -0.504%
CCCCOC(=O)c1cccc(NC(=O)/C=C/c2ccccc2Cl)c1 -30.1%
O=C(Cn1c(SCC(=O)Nc2ccc(F)cc2)nc2ccccc21)NCc1ccccc1Cl -4.22%
COc1ccc(OC)c(NC(=O)CSc2nc3ccccc3c(=O)n2CCC(=O)NC2CCCCC2)c1 -14.8%
COc1ccccc1NC(=O)C(Cc1ccccc1)NS(=O)(=O)c1cccc2nsnc12 (centres undefined) -22.6%
CCOC(=O)COc1ccc(F)cc1C(=O)c1ccn2nc(-c3ccc(C)cc3)cc2n1 -7.66%
CN1C(=O)C(C)(C)c2cc(S(=O)(=O)N3CCCC3C(=O)Nc3ccc(F)cc3)ccc21 (centres undefined) -9.49%
COc1cc(Cl)c(C)cc1NC(=O)c1sc2nc(C)cc(C)c2c1N -21.5%
Cc1ccsc1CN(C(=O)COc1cccc(C)c1C)C1CCS(=O)(=O)C1 (centres undefined) -20.6%
COc1cc(C(=O)N(Cc2cccnc2)c2nc3cc(C)c(C)cc3s2)cc(OC)c1OC -3.85%
COc1ccc(NC(=O)Cn2c(=O)n(Cc3ccco3)c(=O)c3oc4ccccc4c32)cc1Cl -6.94%
COc1cc2c(cc1NC(=O)COc1ccc(Cl)cc1)oc1ccccc12 -33.4%
Clc1ccccc1CN1CCc2nc(N3CCN(c4ncccn4)CC3)ncc2C1 -3.57%
Cc1nnc(N2CCC(C(=O)NC(C)C)CC2)c2nn(-c3ccccc3)c(C)c12 5.06%
O=C(Nc1ccc(F)cc1)c1cc2cc3ccc(Cl)cc3nc2o1 -15.7%
Cc1ccc(-c2noc(-c3nnn(-c4ccc(Br)cc4F)c3C)n2)cc1 -12.9%
Cc1ccccc1CNCc1c(C(=O)O)c(C)n(Cc2ccc(F)cc2Cl)c1C -15.3%
COc1ccc(-n2ncc3c2ncn2nc(Cc4ccccc4)nc32)cc1 -8.55%
CC(=O)Nc1ccc(C(=O)Nc2ccc3c(c2)N(C2CCCC2)C(=O)c2ccccc2S3)cc1 2.87%
Cc1cc(C)cc(NC(=O)c2cc(S(=O)(=O)N3CCCC3)ccc2F)c1 -13.3%
Cn1nc(-c2ccccc2F)c2cc(C(=O)NCc3cccc(Cl)c3)sc21 -17.2%
Cc1ccc(C)c(NC(=O)c2nnn(Cc3ccc(F)cc3Cl)c2N)c1 -24.7%
Cc1cccc(CSc2nnc(CCCCCN)o2)c1 5.96%
COc1ccc(OC)c(CCNC(=O)Cn2nc(C)n3c(cc4sccc43)c2=O)c1 -14.7%
COc1ccc(-n2ncc(C(=O)NCCN3CCOCC3)c2C2CCN(C(=O)OC(C)(C)C)CC2)cc1 2.7%
CCc1c(C)sc2c1CCN(C(=O)Nc1cc(C)ccc1C)C2c1ccc(OC)cc1 (centres undefined) -17.9%
Cc1nc(-c2cccc(S(=O)(=O)N3CCC(C(=O)NCc4ccccc4Cl)CC3)c2)no1 -1.88%
O=C(c1cc2c(s1)-c1ccccc1OC2)N1CCN(c2ccc(F)cc2)CC1 -16.9%
COc1ccc(CCNS(=O)(=O)c2ccc(N3CCCCS3(=O)=O)cc2)cc1 -9.07%
CCC1Oc2ccccc2N(CC(=O)NCCc2ccc(OC)c(OC)c2)C1=O (centres undefined) -3.62%
O=c1oc2ccc3ccccc3c2cc1-c1nnc(Nc2cccc(C(F)(F)F)c2)s1 -1.38%
COc1cc(OC)c(NC(=O)N2CCc3cc(S(=O)(=O)N4CCC(C)CC4)ccc32)cc1Cl -26.3%
CC(=O)c1ccc(NC(=O)CSc2ccc3nnc(CCNS(=O)(=O)c4ccc(C)cc4)n3n2)cc1 -17.4%
Cc1ccc(Nc2ncc(C(=O)Nc3ccc(F)cc3F)c3ccccc23)cc1Cl -18.3%
Cc1ccc(CN(C(=O)COc2ccc([N+](=O)[O-])cc2)c2ccccn2)o1 -8.42%
CCC1CCCCN1S(=O)(=O)c1cc2c(cc1C)NC(=O)CO2 (centres undefined) -0.916%
COc1ccc(CNC(=O)c2nn(C)c3c2CS(=O)(=O)c2ccccc2-3)cc1 -9.36%
CC(=O)c1cccc(NC(=O)C2CCN(S(=O)(=O)c3ccccc3)CC2)c1 16.8%
c1ccc2c(c1)ncc1nncn12 1.32%
CC1CCC(NC(=O)Cn2ncc3c4ccccc4n(Cc4ccc(F)cc4)c3c2=O)CC1 (centres undefined) -5.94%
O=c1[nH]c2ccc(NCc3ccc(-c4ccc(F)cc4)o3)cc2[nH]1 -4.85%
CCc1nnc(SCC(=O)Nc2cccc(C(F)(F)F)c2)c2cc3oc(C)cc3n12 -11.1%
COc1ccc(/C=C/C(=O)Nc2ccc3nc4c(c(Nc5ccc(OC)c(OC)c5)c3c2)CCCC4)cc1 -24%
COc1ccc(-c2noc(CSc3nnc(Cc4ccccc4)n3-c3cccc(C)c3)n2)cc1 -7.61%
CCOC(=O)Cc1c(C)nc2c(-c3ccc(Cl)cc3)c(C(F)(F)F)nn2c1C -5.47%
CCCc1nn2cc(-c3ccc(C)c(C)c3)nc2s1 0.427%
COc1ccc(CCNC(=O)CCS(=O)(=O)c2cc3c(cc2Cl)NC(=O)CO3)cc1OC 0.906%
O=C(COc1ccccc1)Nc1nnc(SCc2cc(=O)n3cc(Cl)ccc3n2)s1 2.64%
CC1=C(C(=O)O)N2C(=O)[C@@H](NC(=O)[C@H](N)c3ccccc3)[C@H]2SC1 -6.44%
Cc1oc(-c2ccccc2Cl)nc1CS(=O)(=O)CC(=O)NC(C)c1ccccc1 (centres undefined) -2.67%
CCC(C(=O)Nc1ccccc1OC)n1c(C(=O)OC)cc2sc(Cl)cc21 (centres undefined) -23.9%
Cc1ccc2onc(CNC(=O)NCc3ccccc3)c2c1 -18.7%
CCOc1ccccc1CNC(=O)CSc1nnc(C)c2c(C)n(-c3ccccc3)nc12 -16.6%
CC(=O)N1CCc2cc(S(=O)(=O)NC(CC(C)C)C(=O)NCCc3cccc(C)c3)ccc21 (centres undefined) -3.13%
